The whole screen tested about 150,000 compounds, of which about 540 (0.36%) showed an effect of 50% or more. The list shows a part of the results.

Usually % Inhibition stands for the drop in the measured response relative to a control, in per cent.

This experiment deals with Plasmodium falciparum. Kind of experiment: Primary screen in NF54 nanoGlo assay, in single point, at 2uM, 72h; a lower Z score goes with more inhibition. The class given is functional, Erythrocyte. Conditions: timepoint 72 hour.
Regarding `CCOC(=O)NCC(=O)NCCc1cccs1`, the “% Inhibition” value is given as -18% and the Z score was determined as 1.85.
In the case of `O=C(c1cccs1)N1CC[C@H](c2cccs2)C1`, the “% Inhibition” value is on record as -12% and the Z score worked out at 2.48.
The corresponding values for `CC(C)NS(=O)(=O)N(C)Cc1noc(C2CC2)n1` are 1% and -0.15.
On to `Cc1ccncc1C(=O)N1CCCN(Cc2ccncc2)[C@H](c2ccccc2)CC(=O)NCC1`, for which the “% Inhibition” value is listed as -4% and the Z score turned out to be 0.48.
The corresponding values for `CC(=O)N(Cc1cccnc1)c1cc(C)ccc1Cl` are -4% and 0.46.
The corresponding values for `O=C(C[C@H]1CCOC1)NCCc1nc2ccccc2o1` are -13% and 1.99.
Turning to `CCOC1CC(N(C)Cc2cn(C(C)(C)C)nn2)C12CCC2` (configuration not stated), the “% Inhibition” value worked out at 9% and the Z score is listed as -1.08.
Regarding `Cc1cc(C(F)(F)F)cc(-c2ccc(C(=O)NC[C@@]3(C)CCCO3)cc2)n1`, the “% Inhibition” value is reported as -14% and the Z score amounted to 1.37.
Taken in the same sequence, the figures for `N#Cc1ccc2c(c1)N(Cc1ccccc1F)C(=O)[C@@H]1CCCN21` were 32% and -0.66.
Consider `CC[C@@H]1Oc2ccccc2N(CC(=O)NCCC2=CCCCC2)C1=O`, for which the “% Inhibition” value is -8% and the Z score stood at 1.36.
Taken in the same sequence, the figures for `Cc1nc([C@@H]2CCCCN2C(=O)c2cnc3c(c2)NC(=O)CO3)no1` were 12% and -1.59.
For `CCCc1cc(C(=O)N[C@H](c2ccccc2)C2CC2)[nH]n1`, the “% Inhibition” value is reported as -2% and the Z score is recorded as 0.35.
As to `COc1ccc(CN2CCn3c(nn(C)c3=O)C2)cc1Cn1ccnc1`, the “% Inhibition” value is recorded as -20% and the Z score is reported as 3.44.
Take `O=C1CCC2(CCN(CCn3cnc4ccccc43)CC2)CN1C[C@H]1CCCO1`: the “% Inhibition” value is 2% and the Z score is -0.27.
Regarding `Cc1ccc([C@@H]2CCCN2S(C)(=O)=O)s1`, the “% Inhibition” value is recorded as -1% and the Z score came out at 0.28.
The corresponding values for `COCCN(C)C[C@@H]1C[C@H](CO)CN(C(=O)c2ccc(F)cc2C)C1` are -1% and 0.18.
Taken in the same sequence, the figures for `CC(C)[C@H](NC(=O)N1CC(=O)Nc2ccccc21)C(=O)NCc1ccccc1F` were 10% and -1.28.
On to `C[C@H](CO)CN(Cc1ccccc1)C(=O)CS(C)(=O)=O`, for which the “% Inhibition” value is listed as -11% and the Z score stood at 1.56.
In the case of `Cc1cc(NC(=O)c2ccccn2)ccc1N1CCCC1=O`, the “% Inhibition” value is on record as -9% and the Z score stood at 0.83.
In the case of `Cc1ncc(Cl)c(C(=O)Nc2ccc3c(ccn3CC(C)C)c2)n1`, the “% Inhibition” value is recorded as -6% and the Z score came to 0.83.
Taken in the same sequence, the figures for `Cc1cccc(C(=O)NCCN2CCN(S(=O)(=O)c3ccccc3)CC2)c1` were -20% and 2.36.
In the case of `Nc1ncncc1-c1noc([C@@H]2CCCN2Cc2ccc(C(=O)O)cc2)n1`, the “% Inhibition” value is -1% and the Z score is listed as 0.07.
With `CCn1cc(CN(C)Cc2scnc2C)c(C)n1`, the “% Inhibition” value is given as -8% and the Z score is 1.07.
Taken in the same sequence, the figures for `O=C(Nc1cccc2ccccc12)C1CCN(c2cc(-c3ccc(F)cc3)ncn2)CC1` were -2% and 0.24.
Regarding `O=C(NCc1ccc(N2CCCC2=O)cc1)c1csc(S(=O)(=O)NCc2ccc(N3CCCC3=O)cc2)c1`, the “% Inhibition” value is reported as -9% and the Z score was found to be 1.84.
Consider `CCN1CCc2ncnc(N3CCN(C(=O)[C@@H]4CCCO4)CC3)c2C1`, for which the “% Inhibition” value is recorded as -1% and the Z score stood at 0.09.
The corresponding values for `CCc1ncc(CN2CCCn3nc(CNC(=O)C4CCC4)cc3C2)cn1` are -14% and 1.61.
Taken in the same sequence, the figures for `CCS(=O)(=O)N1CCC[C@H](C(=O)N2CC(=O)Nc3ccccc32)C1` were -23% and 2.09.
As for `CCCCS(=O)(=O)Nc1cnn([C@H]2CCOC2)c1`, the “% Inhibition” value is 10% and the Z score is on record as -1.27.
Turning to `Cc1cc(NC(=O)c2cccc(C)c2Cl)nc(=O)[nH]1`, the “% Inhibition” value is -12% and the Z score was found to be 1.23.
The corresponding values for `CC(C)c1cc(C(=O)Nc2ccon2)cs1` are -12% and 1.64.
On to `CC(C)(CNC(=O)NCc1ccccc1)c1ccsc1`, for which the “% Inhibition” value was -5% and the Z score was determined as 0.89.
Take `CC1CN(C(=O)CCc2ccccc2N)C(c2ccccc2)CO1` (configuration not stated): the “% Inhibition” value was -7% and the Z score is 0.91.
Taken in the same sequence, the figures for `CC1C(=O)CCN(Cc2ccco2)C1C` (configuration not stated) were -5% and 0.56.
As for `O=C1[C@H]2[C@@H](C(=O)N1c1cccc(Cl)c1)[C@]1(C(=O)Nc3c(Cl)cccc31)N1CCC[C@@H]21`, the “% Inhibition” value was 1% and the Z score is given as -0.08.
As for `Cc1ccc(CCN2C(=O)CC[C@@H]3CN(C(=O)c4cc[nH]n4)CC[C@@H]32)o1`, the “% Inhibition” value is -18% and the Z score is on record as 1.62.
As for `CN1CCOC(C(=O)N2CC3CCCCC3C2)C1` (configuration not stated), the “% Inhibition” value is -19% and the Z score was 2.61.
Taken in the same sequence, the figures for `O=C(NC1CCCCC1)[C@H]1CC(=O)N(Cc2cc(C(F)(F)F)cc(C(F)(F)F)c2)C1` were 6% and -0.66.
The corresponding values for `Cn1cc(CNC(=O)c2ccc(OCc3ccc(Cl)cc3)cc2)cn1` are -8% and 1.08.
The corresponding values for `C#CCN1CCC[C@H]1C(=O)Nc1ccc(OCc2nc(C)no2)cc1` are 6% and -0.74.
As for `CN(C(=O)c1sccc1Cl)[C@@H]1CCCC[C@@H]1O`, the “% Inhibition” value is recorded as -4% and the Z score was 0.68.

The record behind these values is ChEMBL document CHEMBL4888484, “Replenishing the malaria drug discovery pipeline: Screening and hit evaluation of the MMV Hit Generation Library 1 (HGL1) against asexual blood stage Plasmodium falciparum ,using a nano luciferase reporter read-out” (2022).
